Data from the supplement of paper PMC10724272.

Compound: Nc1[nH]c(=O)ncc1F [flucytosine]
Test: CLSI broth microdilution.

Test System	MIC
Candida tropicalis isolate 201 (ERG11 copies: 2, Erg11p: Y132F, S154F (heterozygous))	≤ 0.06 mg/L [S]
Candida tropicalis isolate 169 (ERG11 copies: 2, Erg11p: no key change)	≤ 0.06 mg/L [S]
Candida tropicalis isolate 398 (ERG11 copies: 2, Erg11p: Y132F, S154F (heterozygous))	≤ 0.06 mg/L [S]
Candida tropicalis isolate 14 (ERG11 copies: 2, Erg11p: no key change)	≤ 0.06 mg/L [S]
Candida tropicalis isolate 64 (ERG11 copies: 2, Erg11p: no key change)	≤ 0.06 mg/L [S]
Candida tropicalis isolate 245 (ERG11 copies: 2, Erg11p: no key change)	≤ 0.06 mg/L [S]
Candida tropicalis isolate 435 (ERG11 copies: 2, Erg11p: no key change)	≤ 0.06 mg/L [S]
Candida tropicalis isolate 4 (ERG11 copies: 2, Erg11p: no key change)	≤ 0.06 mg/L [S]
Candida tropicalis isolate 415 (ERG11 copies: 2, Erg11p: no key change)	≤ 0.06 mg/L [S]
Candida tropicalis isolate 32 (ERG11 copies: 6, Erg11p: Y132F, S154F (heterozygous))	≤ 0.06 mg/L [S]
Candida tropicalis isolate 295 (ERG11 copies: 2, Erg11p: no key change)	≤ 0.06 mg/L [S]
Candida tropicalis isolate 88 (ERG11 copies: 2, Erg11p: no key change)	≤ 0.06 mg/L [S]
Candida tropicalis isolate 90 (ERG11 copies: 2, Erg11p: no key change)	≤ 0.06 mg/L [S]
Candida tropicalis isolate 36 (ERG11 copies: 2, Erg11p: no key change)	≤ 0.06 mg/L [S]

Compound: C[C@@H]1[C@H](O)[C@@H](C)/C=C/C=C/C=C/C=C/C=C/C=C/C=C/[C@H](O[C@@H]2O[C@H](C)[C@@H](O)[C@H](N)[C@@H]2O)C[C@@H]2O[C@](O)(C[C@@H](O)C[C@@H](O)[C@H](O)CC[C@@H](O)C[C@@H](O)CC(=O)O[C@H]1C)C[C@H](O)[C@H]2C(=O)O [amphotericin B]
Test: CLSI broth microdilution.

Test System	MIC
Candida tropicalis isolate 297 (ERG11 copies: 2, Erg11p: no key change)	0.25 mg/L [S]
Candida tropicalis isolate 10 (ERG11 copies: 2, Erg11p: no key change)	1 mg/L [S]
Candida tropicalis isolate 368 (ERG11 copies: 8, Erg11p: Y132F, S154F (heterozygous))	0.5 mg/L [S]
Candida tropicalis isolate 104 (ERG11 copies: 2, Erg11p: no key change)	0.5 mg/L [S]
Candida tropicalis isolate 38 (ERG11 copies: 2, Erg11p: no key change)	0.5 mg/L [S]
Candida tropicalis isolate 437 (ERG11 copies: 2, Erg11p: no key change)	0.5 mg/L [S]
Candida tropicalis isolate 6 (ERG11 copies: 2, Erg11p: no key change)	1 mg/L [S]
Candida tropicalis isolate 328 (ERG11 copies: 2, Erg11p: Y132F, S154F (homozygous))	1 mg/L [S]
Candida tropicalis isolate 92 (ERG11 copies: 2, Erg11p: no key change)	1 mg/L [S]
Candida tropicalis isolate 115 (ERG11 copies: 2, Erg11p: no key change)	0.5 mg/L [S]
Candida tropicalis isolate 141 (ERG11 copies: 2, Erg11p: no key change)	1 mg/L [S]
Candida tropicalis isolate 2 (ERG11 copies: 6, Erg11p: Y132F, S154F (homozygous))	1 mg/L [S]
Candida tropicalis isolate 155 (ERG11 copies: 2, Erg11p: no key change)	0.5 mg/L [S]
Candida tropicalis isolate 279 (ERG11 copies: 8, Erg11p: Y132F, S154F (heterozygous))	1 mg/L [S]
Candida tropicalis isolate 252 (ERG11 copies: 2, Erg11p: no key change)	0.5 mg/L [S]
Candida tropicalis isolate 349 (ERG11 copies: 7, Erg11p: Y132F, S154F (heterozygous))	2 mg/L [S]
Candida tropicalis isolate 146 (ERG11 copies: 2, Erg11p: no key change)	1 mg/L [S]
Candida tropicalis isolate 257 (ERG11 copies: 2, Erg11p: no key change)	1 mg/L [S]
Candida tropicalis isolate 321 (ERG11 copies: 2, Erg11p: no key change)	0.5 mg/L [S]
Candida tropicalis isolate 412 (ERG11 copies: 2, Erg11p: no key change)	0.5 mg/L [S]
Candida tropicalis isolate 182 (ERG11 copies: 2, Erg11p: no key change)	0.5 mg/L [S]
Candida tropicalis isolate 89 (ERG11 copies: 2, Erg11p: no key change)	0.5 mg/L [S]
Candida tropicalis isolate 201 (ERG11 copies: 2, Erg11p: Y132F, S154F (heterozygous))	0.5 mg/L [S]
Candida tropicalis isolate 169 (ERG11 copies: 2, Erg11p: no key change)	2 mg/L [S]
Candida tropicalis isolate 398 (ERG11 copies: 2, Erg11p: Y132F, S154F (heterozygous))	1 mg/L [S]
Candida tropicalis isolate 14 (ERG11 copies: 2, Erg11p: no key change)	1 mg/L [S]
Candida tropicalis isolate 64 (ERG11 copies: 2, Erg11p: no key change)	0.5 mg/L [S]

MIC of invasive clinical C. tropicalis isolates, CLSI broth microdilution (fluconazole 0.12-256 mg/L, up to 1,024 for the azole-resistant cluster and its neighbour group; other ranges not stated); higher = less susceptible. Call: susceptible or wild type [S] / resistant or non-wild type [R] by CLSI breakpoints or cut-offs; intermediate and dose-dependent carry no call. '<=' and '>=' at the end values are inferred; the source marks only some of them. Isolates are numbered anew.
